Laboratory results as given in the antibiotic and cytotoxicity screens of Wong et al. (2023).
The other results are listed elsewhere or left out.

How the values were obtained:
[1] = system: HSkMC (human skeletal muscle cells); test: cytotoxicity call (relative viability < 0.9); details: 10 µM
[2] = system: HepG2; test: cytotoxicity call (relative viability < 0.9); details: 10 µM
[3] = system: S. aureus RN4220; test: growth inhibition call (relative growth <= 0.2); details: 50 µM

COc1ccc(S(=O)(=O)N(C)C[C@@H]2OCCCC[C@@H](C)Oc3ccc(NC(=O)c4ccccc4)cc3C(=O)N([C@H](C)CO)C[C@@H]2C)cc1
cytotoxicity call [1]: inactive
cytotoxicity call [2]: inactive
growth inhibition call [3]: inactive

C[C@H]1CN([C@@H](C)CO)C(=O)Cc2cc(NC(=O)Nc3ccc(C(F)(F)F)cc3)ccc2O[C@H]1CN(C)Cc1ccc(C(=O)Nc2ccccc2N)cc1
cytotoxicity call [1]: inactive
cytotoxicity call [2]: active
growth inhibition call [3]: inactive

C[C@@H]1CCCCO[C@H](CN(C)S(C)(=O)=O)[C@H](C)CN([C@@H](C)CO)C(=O)c2cc(N(C)C)ccc2O1
cytotoxicity call [1]: inactive
cytotoxicity call [2]: inactive
growth inhibition call [3]: inactive

C[C@@H]1CCCCO[C@@H](CN(C)S(=O)(=O)c2cn(C)cn2)[C@H](C)CN([C@H](C)CO)C(=O)c2cc(NS(=O)(=O)c3cccs3)ccc2O1
cytotoxicity call [1]: inactive
cytotoxicity call [2]: inactive
growth inhibition call [3]: inactive

Cn1c2c(c(=O)n(C)c1=O)CN(CC1CC1)CN2
cytotoxicity call [1]: inactive
cytotoxicity call [2]: inactive
growth inhibition call [3]: inactive

C[C@@H]1CN([C@H](C)CO)C(=O)c2cc(NC(=O)NC3CCCCC3)ccc2O[C@@H](C)CCCCO[C@H]1CN(C)C(=O)CCC(F)(F)F
cytotoxicity call [1]: inactive
cytotoxicity call [2]: inactive
growth inhibition call [3]: inactive

CN1CCN(C(=O)C[C@@H]2C[C@@H]3c4cc(NS(=O)(=O)c5ccc(F)cc5)ccc4O[C@@H]3[C@@H](CO)O2)CC1
cytotoxicity call [1]: inactive
cytotoxicity call [2]: inactive
growth inhibition call [3]: inactive

C[C@@H]1CCCn2cc(nn2)COCCNC1=O
cytotoxicity call [1]: inactive
cytotoxicity call [2]: inactive
growth inhibition call [3]: inactive

COc1ccc2c3c(n(c2c1)C)[C@H](CO)N(C[C@]13CCN(CC1)S(=O)(=O)c1ccccc1)C(=O)c1cccnc1
cytotoxicity call [1]: inactive
cytotoxicity call [2]: inactive
growth inhibition call [3]: inactive

CN1CCN(C(=O)C[C@H]2C=C[C@H](NS(=O)(=O)c3cccc(F)c3)[C@H](CO)O2)CC1
cytotoxicity call [1]: inactive
cytotoxicity call [2]: inactive
growth inhibition call [3]: inactive

CC(C)NC(=O)Nc1ccc2c(c1)C(=O)N([C@H](C)CO)C[C@H](C)[C@@H](CN(C)C(=O)Nc1ccc(F)cc1)OCCCC[C@H](C)O2
cytotoxicity call [1]: inactive
cytotoxicity call [2]: inactive
growth inhibition call [3]: inactive

CCS(=O)(=O)Nc1ccc2c(c1)C(=O)N(C)C[C@@H](OC)[C@H](C)CN(C(=O)c1ccc3c(c1)OCO3)[C@@H](C)CO2
cytotoxicity call [1]: inactive
cytotoxicity call [2]: inactive
growth inhibition call [3]: inactive
